Results published in the supplement of paper PMC9446081.
The whole screen tested about 39,000 compounds, of which about 220 (0.56%) showed activity. The list shows a part of the results.
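Note: static incubation at 37 °C against the wild-type strain, values averaged over two biological replicates.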

The compounds below were run on Escherichia coli K-12 BW25113 (assay: relative growth (OD600 normalised to plate interquartile mean) (fraction); higher = less growth inhibition, active = 0.2 or less). Settings: 50 µM; LB; incubation time: overnight (16-24 h).
For `C[C@@H]1CN([C@@H](C)CO)C(=O)c2cc(-c3cccc(C(=O)N(C)C)c3)cnc2O[C@H]1CN(C)S(=O)(=O)c1cccc(F)c1`, the relative growth was inactive: 0.995.
For `COc1cccc(-c2ccc3c(c2)O[C@H](CN(C)C(=O)C2CCC2)[C@@H](C)CN([C@H](C)CO)S3(=O)=O)c1`, the relative growth was inactive: 1.01.
In the case of `CC(C)NC(=O)N(C)C[C@@H]1Oc2c(NC(=O)C3CCOCC3)cccc2C(=O)N([C@@H](C)CO)C[C@@H]1C`, the relative growth is reported as inactive: 1.
`COCCNC(=O)C[C@H]1CC[C@@H]2[C@H](COC[C@@H](O)CN2S(=O)(=O)c2ccccc2C)O1` was tested, and the relative growth was inactive: 1.
In the case of `C[C@@H]1CN([C@H](C)CO)C(=O)c2cc(C#CCc3ccccc3)cnc2O[C@@H]1CN(C)C(=O)C1CCOCC1`, the relative growth is reported as inactive: 0.968.
For `C[C@@H]1CN([C@H](C)CO)C(=O)c2c(c3ccccc3n2C)-c2ccccc2CO[C@H]1CN(C)Cc1ccccc1C(F)(F)F`, the relative growth was inactive: 1.06.
`C[C@H](CO)N1C[C@H](C)[C@@H](CN(C)Cc2ccncc2)Oc2ccc(NC(=O)c3ccncc3)cc2C1=O` was tested, and the relative growth was inactive: 0.966.
With `C[C@@H]1CN([C@H](C)CO)C(=O)c2cc(NS(=O)(=O)c3cccs3)ccc2O[C@@H]1CN(C)CC1CC1` the relative growth was inactive: 1.02.
For `C[C@H]1CCCCO[C@H](CN(C)C(=O)Nc2ccc3c(c2)OCO3)[C@@H](C)CN([C@@H](C)CO)C(=O)c2cc(NC(=O)c3ccncc3)ccc2O1`, the relative growth was inactive: 0.997.
With `COC(=O)[C@H](Cc1ccc(-n2cc(CCC(=O)NO)nn2)cc1)N1CC(/C=C/[C@@H](O)Cc2ccccc2)=C[C@@H](C2CC2)O1` the relative growth was inactive: 1.
`CC(C)(C)N.CCCC(NC(C)C(=O)N1C(C(=O)O)CC2CCCCC21)C(=O)OCC` (stereo unspecified) was tested, and the relative growth was inactive: 0.948.
`COc1ccc(NC(=O)Nc2ccc3c(c2)CC(=O)N([C@@H](C)CO)C[C@H](C)[C@H](CN(C)Cc2ccc(-c4ccccc4)cc2)O3)cc1` was tested, and the relative growth was inactive: 0.969.
In the case of `C[C@@H]1CN([C@@H](C)CO)C(=O)c2cc(NS(=O)(=O)c3ccc(Cl)cc3)ccc2O[C@@H](C)CCCCO[C@@H]1CN(C)C(=O)Nc1ccc(C(F)(F)F)cc1`, the relative growth is reported as inactive: 1.
`C[C@@H]1CN([C@H](C)CO)C(=O)c2cc(NS(=O)(=O)c3ccc(Cl)cc3)ccc2O[C@@H](C)CCCCO[C@@H]1CN(C)Cc1ccncc1` was tested, and the relative growth was inactive: 0.979.
`Cc1ccc(S(=O)(=O)Nc2ccc3c(c2)C(=O)N([C@H](C)CO)C[C@H](C)[C@H](CN(C)C(=O)Nc2ccc(C(F)(F)F)cc2)O3)cc1` was tested, and the relative growth was inactive: 0.994.
With `COc1ccc(NC(=O)N(C)C[C@H]2Oc3ccc(NC(=O)Nc4cccc5ccccc45)cc3C(=O)N([C@H](C)CO)C[C@H]2C)cc1` the relative growth was inactive: 0.974.
`CN(C)CC(=O)N1CC(=O)N2[C@H](C1)[C@H](c1ccc(C#Cc3cccnc3)cc1)[C@@H]2CO` was tested, and the relative growth was inactive: 0.972.
With `COc1ccc(CN(C)C[C@@H]2OCCCC[C@H](C)Oc3ccc(NC(=O)Cc4ccccc4)cc3C(=O)N([C@H](C)CO)C[C@@H]2C)cc1` the relative growth was inactive: 0.996.
For `C[C@H]1CCCCO[C@@H](CN(C)Cc2ccc(C(F)(F)F)cc2)[C@@H](C)CN([C@@H](C)CO)C(=O)c2cc(NC(=O)Nc3ccc(F)cc3)ccc2O1`, the relative growth was inactive: 1.04.
In the case of `COc1ccccc1CN1C[C@@H](C)[C@H](OC)CN(C)C(=O)c2cc(NC(=O)Nc3ccccc3OC)ccc2OC[C@H]1C`, the relative growth is reported as inactive: 1.
`C[C@@H]1CCCCO[C@H](CN(C)C(=O)Nc2ccc3c(c2)OCO3)[C@H](C)CN([C@@H](C)CO)C(=O)c2cc(NC(=O)c3ccncc3)ccc2O1` was tested, and the relative growth was inactive: 1.01.
For `C[C@H]1CN([C@@H](C)CO)S(=O)(=O)c2ccc(-c3ccc(F)cc3)cc2O[C@@H]1CN(C)S(C)(=O)=O`, the relative growth was inactive: 1.02.
With `COc1ccc(CN(C)C[C@H]2OCCCC[C@H](C)Oc3ccc(NC(=O)Nc4ccc5c(c4)OCO5)cc3C(=O)N([C@H](C)CO)C[C@@H]2C)cc1` the relative growth was inactive: 0.968.
In the case of `COCC(=O)N(C)C[C@@H]1Oc2cc(C#C[C@@H](C)O)ccc2S(=O)(=O)N([C@@H](C)CO)C[C@H]1C`, the relative growth is reported as inactive: 0.97.
In the case of `C[C@@H](N)c1ccc(C(=O)Nc2ccnc3[nH]ccc23)cc1`, the relative growth is reported as inactive: 1.01.
`C[C@H](O)C1=C[C@]2(CC[C@@H]3C(C(=O)O)=CO[C@@H](O[C@@H]4O[C@H](CO)[C@@H](O)[C@H](O)[C@H]4O)[C@@H]32)OC1=O` was tested, and the relative growth was inactive: 0.947.
`COc1ccc(CN(C)C[C@@H]2OCCCC[C@@H](C)Oc3ccc(NC(=O)Cc4ccccc4)cc3C(=O)N([C@@H](C)CO)C[C@@H]2C)cc1` was tested, and the relative growth was inactive: 0.983.
With `CC(C)NC(=O)N(C)C[C@@H]1Oc2ccc(NC(=O)NC3CCCCC3)cc2CC(=O)N([C@H](C)CO)C[C@H]1C` the relative growth was inactive: 1.01.
In the case of `C[C@H](CO)N1C[C@H](C)[C@@H](CN(C)S(=O)(=O)c2cccs2)Oc2ccc(NC(=O)c3ccncc3)cc2C1=O`, the relative growth is reported as inactive: 0.994.
With `Cc1c(OCC(F)(F)F)ccnc1CS(=O)c1nc2ccccc2[nH]1` (stereo unspecified) the relative growth was inactive: 0.964.
In the case of `C[C@H]1CN([C@@H](C)CO)C(=O)Cc2cc(NC(=O)NC3CCCCC3)ccc2O[C@H]1CN(C)S(=O)(=O)c1cn(C)cn1`, the relative growth is reported as inactive: 0.985.
For `C[C@@H]1CCCCO[C@@H](CN(C)C(=O)NC2CCCCC2)[C@@H](C)CN([C@H](C)CO)C(=O)c2cc(NC(=O)Nc3ccc(C(F)(F)F)cc3)ccc2O1`, the relative growth was inactive: 1.01.
In the case of `C[C@@H]1CCCCO[C@H](CN(C)S(=O)(=O)c2ccc(F)cc2)[C@H](C)CN([C@@H](C)CO)C(=O)c2cc(NS(=O)(=O)c3cn(C)cn3)ccc2O1`, the relative growth is reported as inactive: 0.98.
With `CO[C@@H]1CN(C)C(=O)c2ccc(NS(=O)(=O)c3cn(C)cn3)cc2OC[C@@H](C)N(CC2CC2)C[C@@H]1C` the relative growth was inactive: 1.05.
For `C[C@H]1CN([C@@H](C)CO)C(=O)c2cc(NC(=O)NC3CCCCC3)ccc2O[C@H]1CN(C)S(=O)(=O)c1cn(C)cn1`, the relative growth was inactive: 0.994.
For `C=CCN1C(=O)[C@@]2(O[C@@H](CCO)[C@H]([Si](C)(C)F)[C@H]2C)c2cc(N3C(=O)c4cccc5cccc3c45)ccc21`, the relative growth was inactive: 0.967.
